Test results published in PubChem BioAssay AID1240 (Sanford-Burnham Center for Chemical Genomics, 2008).
Several values for one entry are separate records, joined by “and”; a condition that tells them apart may be missing. Equal values may be shown once. The whole screen tested about 50,000 compounds, of which about 800 (1.6%) showed an effect of 50% or more. The list shows a part of the results.

The molecules below were run against Bcl-2-like protein 10 (Homo sapiens) (UniProt Q9HD36) (assay: Phenotype converters, Bcl-B/TR3 peptide binding displacement, primary biochemical FP (AID 1240;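 note: 0% = Bcl-B with tracer peptide and DMSO and 100% = tracer peptide lacking Bcl-B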)). Conditions: GST-Bcl-B / FITC-TR3 peptide fluorescence polarization; stronger effect = higher value; compound at 3.75 mg/L.
Chain of UniProt Q9HD36 (Q9HD36 whole entry, looked up): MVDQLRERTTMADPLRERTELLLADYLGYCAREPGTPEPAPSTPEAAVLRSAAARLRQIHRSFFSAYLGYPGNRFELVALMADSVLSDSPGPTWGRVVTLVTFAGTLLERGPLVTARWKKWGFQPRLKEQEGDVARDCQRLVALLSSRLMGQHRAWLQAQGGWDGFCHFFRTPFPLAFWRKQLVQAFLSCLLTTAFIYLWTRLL

Structure (SMILES)	displacement
COc1cccc(NC(=O)C(=O)N/N=C/c2ccccc2OC)c1	1.4%
Cc1cc(/C=N/NC(=O)c2ccc(CN3CCOCC3)cc2)c(C)n1-c1ccccc1	-19%
O=C(Nc1ncc(Cc2cc(Cl)ccc2Cl)s1)c1cccs1	9.1%
O=C(c1cccs1)N1CCCc2ccccc21	-4.2%
O=C(c1cc(F)c(F)cc1[N+](=O)[O-])N1CCOCC1	-10.1%
CN(C)c1ccc(NC(=O)c2ccc(Cl)cc2)cc1	12.9%
COc1ccc(CC(=O)NCC2(c3ccc(OC)c(OC)c3)CCCC2)cc1	-12.5%
C=CCc1ccccc1OCCn1cc(/C=C2/SC(=S)N(C)C2=O)c2ccccc21	-2.2%
COC(=O)c1ccc(-n2c(C)cc(C=C3C(=O)N(C)C(=O)N(C)C3=O)c2C)cc1	24.9%
CCOC(=O)c1cnn(C(=O)OCC)c1N	-12.9%
CCC(C)c1ccc(NC(=O)C2C3C=CC(C3)C2C(=O)O)cc1 (stereo unspecified)	3.4%
O=C1CS/C(=N/N=C/c2ccc(-c3ccc([N+](=O)[O-])cc3)o2)N1	41.1%
COc1ccccc1/C=N/NC(=O)c1cc(-c2ccc(Cl)cc2)n[nH]1	-5.4%
Cc1cc(/C=C2/NC(=O)NC2=O)c(C)n1-c1ccc(Br)cc1	12.4%
COC(=O)c1sccc1NC(=O)c1ccc(Cl)cc1Cl	-13.8%
CC(=O)c1ccc(N2C(=O)C3C(C2=O)C2(C)c4ccccc4C3(C)c3ccccc32)cc1 (stereo unspecified)	5.7%
O=C(c1ccccc1)c1cccc(NC2=NS(=O)(=O)c3ccccc32)c1	0.4%
Cc1ccc(C(=O)c2ccc(Br)cc2)cc1S(=O)(=O)Nc1cccc(O)c1	-2.9%
COc1ccc(NC(=O)CN(c2ccc(Br)cc2)S(C)(=O)=O)c(OC)c1	3.9%
CCCCCCCC1=NN2C(=O)CC(=O)N=C2S1	12.4%
CC(C)(C)NC(=O)C(=O)N/N=C/c1c(Cl)cccc1Cl	-0.9%
O=C(Nc1ccc2nn(-c3ccccc3)nc2c1)c1cc(I)ccc1Cl	-0.6%

Structure (SMILES)	displacement
CC1=C(C(=O)OC(C)C)C(c2cccs2)C(C(=O)OC(C)C)=C(C)N1	1.8%
Brc1cccc(CN2CCN(Cc3ccncc3)CC2)c1	-22.5%
CC(C)(C)C(=O)Nc1ccccc1C(=O)Nc1ccccc1	5.6%
CCCc1nc(-c2ccccc2)c(-c2ccc(OC)c(OC)c2)c(=O)[nH]1	-12.6%
CCOC(=O)C1=C(C)N=c2s/c(=C\c3ccc([N+](=O)[O-])cc3)c(=O)n2C1c1ccc(OC)cc1OC (stereo unspecified)	1.9%
O=c1/c(=C/c2ccccc2OCc2ccc(Cl)cc2)sc2nc3ccccc3n12	2.3%
O=C(c1ccc(F)cc1)N1CCN(C(=O)c2cccc(Cl)c2)CC1	-12.7%
COc1ccccc1N=Cc1c(O)c(C(=O)Nc2ccccc2)cc2ccccc12	105%
O=C1NC(=O)/C(=C/c2ccccc2OCc2ccc(Cl)cc2)S1	2.7%
COc1ccc(/C=C/C(=O)c2ccc(Cl)cc2)cc1	13%
CCc1c(C)sc(NC(=O)CCc2ccc(OC)cc2)c1C#N	0.5%
CCOC(=O)CN1C(c2ccccc2OC)Nc2ccc(Br)cc2C1c1ccccc1 (stereo unspecified)	15.6%
CC(C)(C)c1ccc(C(=O)CC(=O)c2ccccc2O)cc1	-8.7%
Cc1ccc(-c2cc(C(F)(F)F)n3ncc(C(=O)NCCc4ccccc4)c3n2)cc1	-5.3%
CCc1ccc(/C=C2\C(=O)NN(c3ccc(Cl)c(Cl)c3)C2=O)cc1	5.7%
O=C1C(=O)N(c2cccnc2)C(c2ccc(O)cc2)/C1=C(\O)c1ccccc1 (stereo unspecified)	-2.9%
CC1=C(C(=O)OCC2CCCO2)C(c2ccc(F)cc2)C2=C(CCCC2=O)N1 (stereo unspecified)	4%
CC(C)(C)c1ccc(C2C(C(=O)c3ccco3)=C(O)C(=O)N2c2ncc(S(=O)(=O)c3ccc([N+](=O)[O-])cc3)s2)cc1 (stereo unspecified)	8.3%
O=C(COc1ccc(C=C2C(=O)NC(=O)NC2=O)cc1)NCCc1ccccc1	82.5%
COc1cc(/C=C2\NC(=S)NC2=O)ccc1OC(=O)C12CC3CC(CC(C3)C1)C2	28.9%
C(=C\c1ccco1)/C=N/Nc1cccc2cccnc12	-16.5%
Cc1ccc(OCCOc2ccc(Br)cc2/C=C2/SC(=S)N(C)C2=O)cc1	8.8%

Structure (SMILES)	displacement
COc1ccc(N(CC(=O)N2CCOCC2)S(C)(=O)=O)c(OC)c1	-7.1%
C=CCc1cccc(C2Nc3ccccc3C(=O)N2O)c1O (stereo unspecified)	1.7%
CCOC(=O)c1cc2cc(Cl)ccc2oc1=O	3.2%
O=C(O)C1C2CC/C=C\CC/C=C/CCC21 (stereo unspecified)	-14%
CC1=C(C#N)c2nc(N)c(C#N)c(C)c2/C1=C/c1ccc(-c2cccc(C(=O)O)c2)o1	18.7%
CC(=O)Oc1ccccc1-c1nc(C)nn1C(C)=O	-1.8%
CS(=O)(=O)N(CC(=O)Nc1ccc(Oc2ccccc2)cc1)c1ccc(Br)cc1	12.4%
C#CCOc1ccc(/C=C2\C(=O)NC(=O)N(c3ccc(Cl)cc3)C2=O)cc1OC	-18.9%
COc1ccc(OCCSc2nnnn2-c2ccccc2)cc1	-4.2%
COc1ccc(NC(=O)C(=O)NCc2ccc(C)cc2)cc1Cl	12.1%
O=C(Nc1cccc2ccccc12)c1cc(I)ccc1Cl	0.4%
CCN(CC)CC#CC(O)(c1ccccc1)c1ccccc1	-5%
COc1cc(C2SCC(=O)N2c2c(C)n(C)n(-c3ccccc3)c2=O)ccc1O (stereo unspecified)	17.8%
N/C(=N/S(=O)(=O)c1ccc(Br)cc1)c1ccccc1	8.5%
CC(=O)N=c1cccc(NC(C)=O)n1O	5.8%
O=C(ON1C(=O)CCC1=O)c1cccnc1	2.4%
COc1cc(/C=N/N=C2c3ccccc3-c3ccccc32)cc(OC)c1OC	9.2%
Cn1c2ccccc2c2nnc(SCC(=O)NCc3ccco3)nc21	14.6%
O=C(Nc1ccc(F)c([N+](=O)[O-])c1)c1ccc(Br)o1	13%
COc1ccc(OC)c(C2/C(=C(\O)c3ccc(Br)cc3)C(=O)C(=O)N2c2ccccc2)c1 (stereo unspecified)	-5.4%
COc1ccc(NC(=O)COc2ccc3ccccc3c2)c(OC)c1	-1.3%
COc1cc(/C=C2\C(=O)NC(=O)N(c3ccc(Cl)cc3)C2=O)cc(Cl)c1OC	-2.2%

Structure (SMILES)	displacement
CCC(C)NC(=O)/C(=C\c1ccc(OC(C)=O)c(OC)c1)NC(C)=O (stereo unspecified)	0.8%
O=S(=O)(/N=C(/Nc1cccc(O)c1)c1ccccc1)c1ccc(Cl)cc1	12.5%
COc1cc(/C=C2\SC(NC(C)=O)=NC2=O)cc(Br)c1OC	11.8%
COc1cc(C2SCC(=O)N2CCN2CCCCC2)cc(OC)c1OC (stereo unspecified)	-4.7%
COc1ccccc1CNC(=O)CC(c1ccccc1)c1ccccc1	4.4%
Cc1c(Br)c(=O)oc2cc(O)ccc12	-10.2%
CC(C)(O)C#Cc1ccc(C(=O)N2CCN(C(=O)c3ccc(C#CC(C)(C)O)cc3)CC2)cc1	-10.1%
CC(C)(C)NCC(O)COC1CCC(C(C)(C)C)CC1 (stereo unspecified)	6.6%
COc1ccccc1/C=c1/sc2nc3c(Br)c(C)c(C)cc3n2c1=O	12.9%
Cc1cc(Cl)ccc1OCCCC(=O)Nc1nc2ccc(S(C)(=O)=O)cc2s1	10.2%
O=C(NCCCN1CCOCC1)/C(=C/c1ccc(-c2cccc(Cl)c2)o1)NC(=O)c1ccccc1	8.9%
COc1cc(-c2ncnn2-c2sc3c(c2C#N)CCCC3)ccc1O	4.9%
COc1ccc(/C=N/N2CCN(c3ccccc3)CC2)cc1Br	7.1%
COc1ccc(C(NC(=O)c2ccccc2F)c2ccc(OC)cc2)cc1	-50.5%
COc1ccc(C2Nc3ccccc3C(=O)N2Cc2ccccc2)cc1COc1ccccc1F (stereo unspecified)	1.2%
CCCCn1c(/N=C/c2ccc(OC)c3cccc(OC)c23)nc2ccccc21	12.7%
Cc1[nH]c2ccccc2c1/C=C/c1nc2ccccc2c(=O)n1-c1ccccc1[N+](=O)[O-]	8.7%
CC(=O)CC1C(C#N)=C(N(C)C)N(c2ccc([N+](=O)[O-])cc2)c2c1n(C)c1ccccc21 (stereo unspecified)	30.5%
COc1ccc(Cl)cc1C(=O)Nc1ccc(Cl)c(-c2nc3ncccc3o2)c1	-3.3%
Cc1cccc(C)c1NC(=O)COc1ccc(Br)cc1	5.2%
CC1=C(C(=O)OC(C)C)C(c2ccc(Br)cc2)C2=C(CC(c3ccc(Cl)cc3)CC2=O)N1 (stereo unspecified)	-12.9%
CCCc1ccc(OCC(=O)NNC(=O)C2COc3ccccc3O2)cc1 (stereo unspecified)	-3.3%

Structure (SMILES)	displacement
O=S(=O)(Nc1ccc(Nc2ccccc2)cc1)c1ccc2ccccc2c1	11.8%
COc1cccc(C(=O)N2CCN(Cc3cc(OC)c(OC)cc3OC)CC2)c1	10.5%
COC(=O)c1ccc(-c2nc3sc4c(c3c(=O)[nH]2)CCCC4)cc1	-17.7%
O=C(O)CN1C(=O)S/C(=C/C(Cl)=C/c2ccc([N+](=O)[O-])cc2)C1=O	6.8%
CCN1C(=O)/C(=C\c2ccccc2O)C(C(=O)OC)=C1C	5.6%
O=C(Nc1cccc(I)c1)c1ccc2c(c1)C(=O)N(CC1CCCO1)C2=O (stereo unspecified)	15.1%
COc1ccc(OC)c(C2/C(=C(\O)c3ccc(F)cc3)C(=O)C(=O)N2CCCCCC(=O)O)c1 (stereo unspecified)	-14.6%
Cc1onc(-c2ccccc2Cl)c1C(=O)Nc1ccccc1C(N)=O	-5.2%
O=C(NCc1ccco1)c1ccccc1[N+](=O)[O-]	-8.7%
O=C1c2ccccc2C(=O)N1/N=C/c1ccccc1O	-5.4%
C=CCOc1c(I)cc(/C=C2/C(=O)NC(=O)N(c3cccc(C)c3)C2=O)cc1OC	12.1%
O=C(NC12CCC3CC(CC(C3)C1)C2)c1ccc(Br)cc1	1%
Brc1ccc(CSc2ncn[nH]2)cc1	1.1% and -20.1%
O=S1(=O)CC(S(=O)(=O)c2ccccc2)C(S(=O)(=O)c2ccccc2)C1 (stereo unspecified)	7.4%
O=C1c2cc(S(=O)(=O)N(CCO)CCO)ccc2-c2ccc(S(=O)(=O)N(CCO)CCO)cc21	2.8%
N#C/C(=C/c1ccc(Cl)cc1)C(=O)Nc1cccc(Br)c1	-9.8%
O=P(c1ccccc1)(c1ccccc1)C1CCOCC1	11.4%
O=C1CC(Cc2ccc(Br)cc2)C(=O)N1c1ccccc1 (stereo unspecified)	12.9%
